Results as given in article PMC4336329 (PLoS ONE, 2015).
The whole screen tested about 310,000 compounds, of which about 14,000 (4.5%) showed an effect of 50% or more. The effect is printed as a negative number. This is one part of the list.

Target: human ether-à-go-go-related gene (hERG) potassium channel (human, UniProt Q12809)
Experiment: primary screen, population patch clamp on CHO cells stably expressing hERG
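Note: peak tail current of the secondary pulse compared with the same well before compound.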

Chain of human ether-à-go-go-related gene (hERG) potassium channel (Q12809 whole entry, looked up): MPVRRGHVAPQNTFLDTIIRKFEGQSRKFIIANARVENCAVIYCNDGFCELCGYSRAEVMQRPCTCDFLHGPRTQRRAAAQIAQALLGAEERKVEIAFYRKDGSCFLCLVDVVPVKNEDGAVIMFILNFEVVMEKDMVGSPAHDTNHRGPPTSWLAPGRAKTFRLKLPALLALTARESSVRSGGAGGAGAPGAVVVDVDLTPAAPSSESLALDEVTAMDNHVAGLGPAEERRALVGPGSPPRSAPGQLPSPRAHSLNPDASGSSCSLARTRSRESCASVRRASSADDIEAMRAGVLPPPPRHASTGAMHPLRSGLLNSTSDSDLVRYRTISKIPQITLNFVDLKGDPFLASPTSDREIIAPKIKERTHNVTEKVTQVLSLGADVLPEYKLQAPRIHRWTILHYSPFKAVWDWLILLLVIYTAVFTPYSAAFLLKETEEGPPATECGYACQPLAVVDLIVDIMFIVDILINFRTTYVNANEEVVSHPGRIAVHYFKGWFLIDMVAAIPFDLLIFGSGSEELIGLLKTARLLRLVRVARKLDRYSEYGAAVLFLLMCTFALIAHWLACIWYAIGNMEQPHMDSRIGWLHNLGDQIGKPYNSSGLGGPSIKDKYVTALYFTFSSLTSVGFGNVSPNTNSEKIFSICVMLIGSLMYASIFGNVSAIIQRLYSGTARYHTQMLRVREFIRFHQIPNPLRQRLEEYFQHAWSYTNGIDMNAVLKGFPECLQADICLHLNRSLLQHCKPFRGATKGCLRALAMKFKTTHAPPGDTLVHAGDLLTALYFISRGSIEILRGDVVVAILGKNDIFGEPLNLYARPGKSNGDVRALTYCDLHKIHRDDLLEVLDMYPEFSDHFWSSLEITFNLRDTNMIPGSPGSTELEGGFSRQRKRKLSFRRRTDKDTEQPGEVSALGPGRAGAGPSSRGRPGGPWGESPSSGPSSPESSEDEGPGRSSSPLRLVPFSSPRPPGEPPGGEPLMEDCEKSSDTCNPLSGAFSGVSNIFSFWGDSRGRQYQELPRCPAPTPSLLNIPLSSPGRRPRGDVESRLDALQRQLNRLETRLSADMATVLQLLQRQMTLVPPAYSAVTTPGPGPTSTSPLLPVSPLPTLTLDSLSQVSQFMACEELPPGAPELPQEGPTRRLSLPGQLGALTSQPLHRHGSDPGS

Row | Compound | hERG current change (%, negative = inhibition) at 10uM [%]
1 | COCC(C)n1c(C)cc(C(=O)CN2C(=O)NC3(CCCCC3C)C2=O)c1C (centres unmarked) | -8.29
2 | CC1(c2ccccc2Cl)NC(=O)N(CC(=O)N2CCN(S(=O)(=O)c3ccccc3)CC2)C1=O (centres unmarked) | 7.55
3 | Cn1c(N)c(C(=O)Nc2ccccc2F)sc1=S | 2.38
4 | COc1ccc(C(=O)Nc2nccs2)cc1[N+](=O)[O-] | 20.4
5 | COc1ccc(OCC(=O)N2CCN(Cc3ccc(SC)cc3)CC2)cc1.O=C(O)C(=O)O | -50.9
6 | Cc1ccccc1S(=O)(=O)Cc1ccc(C(=O)N2CCN(C3CCCCC3)CC2)o1 | -39.3
7 | COc1ccc([C@H]2CC(=O)C=C(c3cc(F)ccc3F)C2)cc1OC | -13.3
8 | O=C(CCCOc1ccc(Cl)cc1Cl)NNC(=O)c1ccc(NC(=O)c2ccccc2)cc1 | 18.2
9 | COc1ccc(CNS(=O)(=O)c2ccc(C3CNC(=O)C3)cc2)cc1 (centres unmarked) | -23.6
10 | COc1cccc(CN(C)CC(=O)Nc2cccc3ccccc23)c1.O=C(O)C(=O)O | 23
11 | C[C@H](O)Cc1cn(-c2cc3cc(C#Cc4ccsc4)ccc3oc2=O)nn1 | 12.7
12 | Cc1ccc(OCC(=O)O/N=C(\N)Cc2cccs2)cc1C | 7.6
13 | CC1CN(CCCCOc2cccc(Oc3ccccc3)c2)CC(C)O1.O=C(O)C(=O)O (centres unmarked) | -35.9
14 | O=C(N/N=C/c1ccccn1)c1cc(Br)ccc1O | -54.9
15 | COc1cc(C2NC(=O)NC(c3ccccc3)=C2C(C)=O)cc(Cl)c1OCC(=O)O (centres unmarked) | 15.7
16 | CCOc1ccc(C(=O)Nc2cccc([N+](=O)[O-])c2)cc1Br | 6.56
17 | N#CC1(NC(=O)COC(=O)CCCN=C2NS(=O)(=O)c3ccccc32)CCCCC1 | 15
18 | CCOC(=O)C1=C(COc2ccc(C)cc2)NC(=O)NC1c1cc(C)ccc1C (centres unmarked) | 13.9
19 | O=C(/C=C/c1cccc([N+](=O)[O-])c1)c1ccco1 | -7.85
20 | CSc1nc(C2CC2)cc(-c2cccs2)c1C#N | 17
21 | Cc1nc(NCCCn2ccnc2)c2oc3ccccc3c2n1.Cl | -69.8
22 | CC(C)N(C)CCOC(=O)c1ccccc1Br.Cl | 14.5

Row | Compound | hERG current change (%, negative = inhibition) at 10uM [%]
23 | COc1ccc(C2CCCN2C(=S)Nc2cccc(C)c2C)cc1OC (centres unmarked) | 19.7
24 | Cc1cc(C)cc(C(=O)Nc2nc3ccccc3[nH]2)c1 | 14.4
25 | CC1CCN(c2ccc(C(=O)OCC(=O)NCCN3C(=O)CSC3=O)cc2[N+](=O)[O-])CC1 | -30.5
26 | Cc1cc(C)cc(C(=O)NCC(=O)OCC(=O)c2cc(C)n(CC(F)(F)F)c2C)c1 | 1.83
27 | CCOc1ccc(C2C(C(=O)c3ccc(C)o3)=C(O)C(=O)N2c2cc(C)on2)cc1OC (centres unmarked) | 17.7
28 | CCCCNC(=O)N1CCN(Cc2ccc(F)cc2)CC1 | -11.3
29 | O=[N+]([O-])c1cc2oc3c(c2c(C=NCc2ccccc2)c1O)CCCC3 | 9.56
30 | Cc1ccc(N2NC(=O)/C(=C\c3cc4c(cc3[N+](=O)[O-])OCO4)C2=O)cc1C | 0.549
31 | CCC(c1nnc(SCC(=O)N2CC(=O)Nc3ccccc32)n1Cc1ccccc1)N(C)C (centres unmarked) | -4.75
32 | CC(C)(C)n1nc(Cc2cccc3ccccc23)c2c(N)ncnc21 | -2.12
33 | Cc1cc(C)c2oc(=O)cc(CN3CCC(C)CC3)c2c1 | -0.888
34 | O=C(NCCc1c[nH]c2ccccc12)C(=O)NCC1OCCCN1S(=O)(=O)c1ccccc1 (centres unmarked) | -11.8
35 | COc1ccc(CC(=O)Nc2nc(-c3ccc(OC)c(OC)c3)cs2)cc1OC | -15.8
36 | CC1CN(S(=O)(=O)c2cccs2)CC(C)O1 (centres unmarked) | -3.7
37 | COc1ccc(S(=O)(=O)Nc2ccc(Nc3ccccc3)cc2)cc1 | 5.15
38 | O=C(NC1CCCC1)c1ccc(Br)s1 | -8.67
39 | CCOC(=O)CSc1nc2cc(OC)ccc2cc1C#N | 10.1
40 | O=C(O)c1ccc2c(c1)C(=O)N(CCc1ccccc1)C2=O | 20.4
41 | CN(C)c1cc[n+](CC(=O)Nc2ccc(OC(F)F)cc2)cc1.[Cl-] | 16.4
42 | Cc1cc(NC(=O)C(C)SCC(=O)N(C)CC(=O)Nc2ccccc2Br)no1 (centres unmarked) | 1.83
43 | CN(Cc1cnccn1)Cc1c(C(=O)N2CCc3ccccc3C2)nc2ccc(Cl)cn12 | -23.4
44 | CC(=O)Nc1ccc(NC(=O)C(Cc2ccccc2)NC(=O)C2CCCCC2)cc1 (centres unmarked) | 3.54

Row | Compound | hERG current change (%, negative = inhibition) at 10uM [%]
45 | CSc1nc2sc3c(c2c(=O)n1C)CCCC3 | -13.5
46 | CC1(C)Cc2c(sc(NC(=O)C3CC(Cl)=CCC3C(=O)O)c2C#N)CO1 (centres unmarked) | 8.57
47 | COc1ccc(NC(=O)C2CCC(CNS(=O)(=O)c3cccs3)CC2)cc1 (centres unmarked) | 17.8
48 | O=C(NCCCOc1cccc(CN2CCCCC2)c1)c1ccc(Cl)c(Cl)c1.O=C(O)C(=O)O | -60.8
49 | CCOC(=O)/C(=N\Nc1ccc(OC)cc1)c1csc(Nc2ccccc2)n1 | 8.24
50 | Cc1ccccc1N1CCN(Cc2ccc([N+](=O)[O-])o2)CC1 | 6.02
51 | CCC(NC(=O)c1ccccc1NC(=O)c1ccco1)C(=O)O (centres unmarked) | 14
52 | Cc1csc(CNc2ncnc3ccc(-c4ccoc4)cc23)c1 | 7.55
53 | CC(C)(C)n1cnc2cc(NC(=O)c3ccc(Cl)cc3)ccc21 | -59.1
54 | CCOc1ccc(/C=N/Nc2cc(=O)n(C)c(=O)n2C)cc1 | -3.04
55 | C=CCOc1ccc(CN(C)C(=O)C2CCCO2)cc1 (centres unmarked) | 2.34
56 | COc1ccccc1CCNC(=O)CN1C(=O)NC2(CCCC2)C1=O | -9.26
57 | COc1ccc(N2CCN(C(=O)C3CCN(S(=O)(=O)c4ccc(C)cc4)CC3)CC2)cc1 | -10.2
58 | O=C(NCC1CCCO1)c1cc(S(=O)(=O)Nc2ccc(Br)cc2)ccc1Cl (centres unmarked) | -5.93
59 | CCOC(=O)C1(Cc2ccccc2)NC(c2ccccc2F)C2C(=O)N(CC)C(=O)C21 (centres unmarked) | -19.6
60 | CC(C)C(=O)Nc1cccc(C(=O)Nc2nnc(C(C)C)s2)c1 | 7.3
61 | CN(C)CCN(C(=O)C1CCN(S(=O)(=O)c2cccs2)CC1)c1nc2ccccc2s1.Cl | -42.9
62 | CCn1c(/C=C/c2ccccc2Cl)nc2ccccc2c1=O | 19.1
63 | Cc1occc1C(=O)Nc1ccc(S(=O)(=O)N2CCCC2)cc1 | -2.27
64 | CC(C)c1nc(SCC(=O)Nc2ccc3c(c2)OCO3)n[nH]1 | 24.1
65 | COC(=O)c1ccc2c(c1)NC(=O)C1CCCN21 (centres unmarked) | -1.97
66 | Cc1cnc(C(=O)NCc2ccc(Cl)cc2Cl)cn1 | -11.3

Row | Compound | hERG current change (%, negative = inhibition) at 10uM [%]
67 | N#Cc1cnn2cc(-c3ncc(C(F)(F)F)cc3Cl)cnc12 | -20.2
68 | O=C1[C@@H]2Cc3c([nH]c4ccccc34)C(c3cccc(Br)c3)N2C(=O)CN1C1CCN(Cc2ccccc2)CC1 (some centres unmarked) | 4.66
69 | CC(C)CNS(=O)(=O)c1ccc(CCC(=O)NCc2ccncc2)cc1 | 5.16
70 | C/C(=N/NC(=O)c1cccc(C)c1)c1c(O)cc(C)oc1=O | -4.3
71 | O=C(Cn1nnc2ccccc21)OCc1ccccc1 | 15.8
72 | COc1ccc(OC)c(C(=O)NC(CC(N)=O)c2ccc(NCC3CC3)c([N+](=O)[O-])c2)c1 (centres unmarked) | -42
73 | Cc1cccc(OCC(=O)Nc2ccccc2N2CCCC2)c1C | -25.6
74 | CC(=O)Nc1ccc2nc(NC(=O)COc3ccc([N+](=O)[O-])cc3)sc2c1 | 5.4
75 | COc1ccc(C(=O)COC(=O)c2ccc([N+](=O)[O-])s2)cc1OC | 1.16
76 | O=C(NCCN1CCCCC1)c1cc(COc2c(F)cccc2F)on1 | -37.9
77 | OC(CNc1ccccc1)COc1ccc(OCC(O)CNc2ccccc2)cc1 (centres unmarked) | -11.5
78 | Cc1[nH]c(C)c(C(=O)/C=C/c2ccc([N+](=O)[O-])cc2)c1C | 6.04
79 | CS(=O)(=O)Nc1cccc(C2=NN(S(C)(=O)=O)C(c3ccccc3)C2)c1 (centres unmarked) | -30.9
80 | Cc1ccc(NS(=O)(=O)c2cn(C)cn2)cc1 | 18.6
81 | Cc1cccc(C(=O)Nc2ncc(CN3CCOCC3)s2)c1 | 13.4
82 | CCN(CC)CCN(C(=O)c1ccc(C(=O)c2ccccc2)cc1)c1nc2c(OC)cccc2s1.Cl | -68
83 | Nc1nonc1C(=O)N/N=C/c1ccc(-c2cccc(C(=O)O)c2)o1 | 49.1
84 | COc1ccc(-c2ccc3nnc(SCC(N)=O)n3n2)cc1 | 25.5
85 | CCN(C(=O)C1CCN(c2nc(-c3ccc(OC)cc3)no2)CC1)c1ccccc1 | -24.7
86 | O=C(O)CN=CC1=C(O)CC(c2ccccc2)CC1=O (centres unmarked) | 22.4
